Measured values taken from the supplement of paper PMC12645437, “Orthogonal IMiD-Degron Pairs Induce Selective Protein Degradation in Cells” (ACS Chemical Biology, 2025).
Some of the results follow.

B1: Q9UKT9 (peptide)
chain: FNCEQCGATFTQKGNLLRHIKL
B2: Q9UKT9 (peptide)
chain: FMCEICGRSFTQKGNLLRHIKL
B3: Q9UKT9 (peptide)
chain: LDCPICGFWCTQKGNLLRHIKL
B4: Q9UKT9 (peptide)
chain: LYCEICGFFCTQKGNLLRHIKL
B5: Q9UKT9 (peptide)
chain: FNCPQCGAIFTQKGNLLRHIKL
B6: Q9UKT9 (peptide)
chain: FVCPVCGANFTQKGNLLRHIKL
B7: Q9UKT9 (peptide)
chain: FKCDQCGAPFTQKGNLLRHIKL
B8: Q9UKT9 (peptide)
chain: FKCPICGRWFTQKGNLLRHIKL
B9: Q9UKT9 (peptide)
chain: FFCEVCGACFTQKGNLLRHIKL
B10: Q9UKT9 (peptide)
chain: FNCPVCGAEFTQKGNLLRHIKL
B11: Q9UKT9 (peptide)
chain: FNCEICGAMFTQKGNLLRHIKL
B12: Q9UKT9 (peptide)
chain: FICNQCGHWFTQKGNLLRHIKL
B13: Q9UKT9 (peptide)
chain: FMCPICGHIFTQKGNLLRHIKL
B14: Q9UKT9 (peptide)
chain: LNCNQCGFTCTQKGNLLRHIKL
B15: Q9UKT9 (peptide)
chain: FLCEICGRFFTQKGNLLRHIKL
B16: Q9UKT9 (peptide)
chain: FLCNICGAWFTQKGNLLRHIKL
B17: Q9UKT9 (peptide)
chain: FICDVCGAGFTQKGNLLRHIKL
B18: Q9UKT9 (peptide)
chain: FACNVCGAYFTQKGNLLRHIKL
B19: Q9UKT9 (peptide)
chain: FSCNQCGRVFTQKGNLLRHIKL
B20: Q9UKT9 (peptide)
chain: FGCDQCGAVFTQKGNLLRHIKL
B21: Q9UKT9 (peptide)
chain: FCCPQCGAGFTQKGNLLRHIKL
B22: Q9UKT9 (peptide)
chain: FRCNVCGAMFTQKGNLLRHIKL
B23: Q9UKT9 (peptide)
chain: FWCPICGAIFTQKGNLLRHIKL
B24: Q9UKT9 (peptide)
chain: FRCSVCGHQFTQKGNLLRHIKL
B25: Q9UKT9 (peptide)
chain: LTCPICGFKCTQKGNLLRHIKL
B26: Q9UKT9 (peptide)
chain: FHCNQCGAFFTQKGNLLRHIKL
B27: Q9UKT9 (peptide)
chain: FHCPQCGADFTQKGNLLRHIKL
B28: Q9UKT9 (peptide)
chain: FQCNVCGAWFTQKGNLLRHIKL
B29: Q9UKT9 (peptide)
chain: FDCDQCGAWFTQKGNLLRHIKL
B30: Q9UKT9 (peptide)
chain: FNCDQCGARFTQKGNLLRHIKL
B31: Q9UKT9 (peptide)
chain: LLCEICGFSCTQKGNLLRHIKL
B32: Q9UKT9 (peptide)
chain: FDCEVCGAYFTQKGNLLRHIKL

target: no compound (DMSO); test: log2 fold change of degron read counts, EGFP-low vs EGFP+ sorted cells; higher = lower degron-EGFP level without compound (poor expression or instability); settings: compound: DMSO control; 18 h
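Also: jurkat cells carrying a lentiviral library of mutant zinc finger degrons fused to EGFP plus mCherry, mCherry+ cells FACS sorted, degron abundance counted by next-generation sequencing.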

Q: How did the “log2 fold change of degron read counts” value turn out when B1 was run?
A: -1.37

Q: B2 was tested. Which “log2 fold change of degron read counts” value did it give?
A: -1.35

Q: Which “log2 fold change of degron read counts” value does the source give for B3 here?
A: 1.61

Q: For B4, which “log2 fold change of degron read counts” value is on record?
A: 1.63

Q: How did the “log2 fold change of degron read counts” value turn out when B5 was run?
A: -0.329

Q: How did the “log2 fold change of degron read counts” value turn out when B6 was run?
A: -0.527

Q: With B7 as the sequence, how does the “log2 fold change of degron read counts” value read?
A: -1.44

Q: With B8 as the sequence, how does the “log2 fold change of degron read counts” value read?
A: -0.0477

Q: B9 was tested. Which “log2 fold change of degron read counts” value did it give?
A: -1.24

Q: For B10, which “log2 fold change of degron read counts” value is on record?
A: -0.735

Q: How did the “log2 fold change of degron read counts” value turn out when B11 was run?
A: -1.33

Q: With B12 as the sequence, how does the “log2 fold change of degron read counts” value read?
A: 0.259

Q: How did the “log2 fold change of degron read counts” value turn out when B13 was run?
A: 0.498

Q: Which “log2 fold change of degron read counts” value does the source give for B14 here?
A: 0.0876

Q: With B15 as the sequence, how does the “log2 fold change of degron read counts” value read?
A: 0.117

Q: With B16 as the sequence, how does the “log2 fold change of degron read counts” value read?
A: 0.502

Q: With B17 as the sequence, how does the “log2 fold change of degron read counts” value read?
A: -1.23

Q: With B18 as the sequence, how does the “log2 fold change of degron read counts” value read?
A: -0.061

Q: How did the “log2 fold change of degron read counts” value turn out when B19 was run?
A: 0.194

Q: With B20 as the sequence, how does the “log2 fold change of degron read counts” value read?
A: -1

Q: How did the “log2 fold change of degron read counts” value turn out when B21 was run?
A: -0.821

Q: B22 was tested. Which “log2 fold change of degron read counts” value did it give?
A: -0.32

Q: B23 was tested. Which “log2 fold change of degron read counts” value did it give?
A: 1.41

Q: With B24 as the sequence, how does the “log2 fold change of degron read counts” value read?
A: 0.564

Q: For B25, which “log2 fold change of degron read counts” value is on record?
A: -0.0446

Q: How did the “log2 fold change of degron read counts” value turn out when B26 was run?
A: -0.305

Q: For B27, which “log2 fold change of degron read counts” value is on record?
A: -2.37

Q: B28 was tested. Which “log2 fold change of degron read counts” value did it give?
A: -0.176

Q: With B29 as the sequence, how does the “log2 fold change of degron read counts” value read?
A: 0.113

Q: Which “log2 fold change of degron read counts” value does the source give for B30 here?
A: -1.25

Q: B31 was tested. Which “log2 fold change of degron read counts” value did it give?
A: -0.172

Q: Which “log2 fold change of degron read counts” value does the source give for B32 here?
A: -0.271
